Read counts are not given, so values of variants with three or more changes are uncertain.
B1: OR4K15 (parent)
chain: GUUAACGGUCAUAGGCCAUGGAAACUAGGAGCACCAUUUCGCUGCCAGUGAAGAAAUGAACAAAGAAAAUCUGGGCCAGGCAGGCAUCAAAAGAAAUAGUCUUGCGCUCAACCAGAAAGUCUGUAAUCAUUUUAAGGGUA

Variants of: B1
Assay: self-cleavage, relative activity (ratio to wild type); higher = more cleavage; in vitro, sequencing; the parent is a self-cleaving ribozyme

Variant	self-cleavage
A66G U108A U132C	0.01
A68G A92U A135U	2.39
A62U U87C U102C	2.01
A64G U132A U139C	2
A67G G75U U100A	0.04
A64U U87C A125G U133C	0.66
A66U U87A C88U	1.09
A64G U97C U108C A134G	0
A63G A78U U127G	0.24
A62G A94G U120C	0.67
A62U A89G U127G	1.78
A64G A86G A92G U122C G136C	0.94
A68G A94G U132C	1.02
A63G G65A A86U	2.1
A62U U72C A78U	0.08
A62U A68C A94G	1.05
A62G A92G A116G G137A	0.84
A62U G79A U122C	0.11
A67G U87A A126G	1.75
A64G U70A U100C U108C U122A A125C	0
A68C U87C G115A	0.05
A63G A82C A94G	0.19
A62G U70C G138A	0.46
A62G A89G A92G A110C	0.2

Variant	self-cleavage
A63G A89G A92G U102C G106A A125G U127C A135G	0
A64G C109U A110G	0.02
A62G A89G G137A	1.13
A68G A92G A94U U130C	0.72
A62G U72A U87C A96U	0.1
A68G A114G A118U U127A	0.09
A68G U70C U122C	0.23
A67G A78G A89G	0.17
A67U A92G A129G U131C	2.53
A68G A82G A129U	0.12
A67G G93A A134G	2.09
A66U A117G A118G U124A	0.71
A66G A67G A96U A117G	1.63
A66G A90G A126U	0.97
A64G C77A A117G	0.53
A64G U108C U131C	0.01
A66G U70C A78G A95G A116G U122C	0.18
A63G U102A U103C	0.26
A67G A91G C128A	0.42
A66G A96G A114G	1.14
A68G A116G U139C	0.97
A68C A69U A78G	0.21
A62G U72A A95G U124A U133C	0.3
A63G G75A U124C	0.22

Variant	self-cleavage
A63G A66U A90G U108C	0.04
A64G A69G U100G A117G	2.17
A66G A90G A91G	1.31
A62G A66G A92G	1.35
A66G U100A U132C U139A	0.32
A67G G74A A86U A118G	0.07
A64G A117G U122C	1.74
A66G U132C A140G	1.17
A62G A63G U108C	0
A68G A78G A98U	0.22
A62G A66G A68G U87C A95G A126G	0.83
A67G U87A A129G	0.97
A67U A111U A117G	0.1
A66G A91G A116G	0.43
A62G U102C U124C	0.61
A64G A66G U72C	0.29
A64U A89G A94U	0.56
A67G A96G U132C	1.72
A66G A78G U100C	0.29
A66G C77U A114G	1.55
A68G A86G U122C U133C	1.64
A62U A86U A94G	2.01
A66U A111G A140G	0.01
A67G A82U C85U A116G U122C A125G	0.01

Variant	self-cleavage
A66G U103C A135G	0.92
A64G A68G U120C U122A U130A	1.11
A62C A64U C85A	0.47
A64G U87C U103C	0.98
A62G U72C A91G	0.09
A63U U70C A92U U127C	0.73
A67G A68G U100C	1.16
A68G C85U A95C	1.02
A67G A117G A129G U139C	1.21
A64G A118G A129G	0.14
A66C A96G U97C A117U A140G	0.59
A66U A94C U102C	1.4
A64G A69G U130G	1.18
A63G A66G A111G	0.05
A63G A91U A114U	0.4
A64G U120G A126G	1.38
A64U A82G A118C A126G U130C	0.06
A67U U103G A117G	0.04
A64G A67G A94G A116U A135U	0.3
A66G U70C A95U U103G U131C	0.01
A64G A82G A86U	1.01
A67G U127C A129G	0.22
A63U U72C U102C A114G	2.22
A68G A92G A129C U130C	0.35

Variant	self-cleavage
A64G A68G G136A	1.74
A64G A69U A90G U124A	0.65
A62U U87A A94G	1.6
A68C A91G A111G	0.02
A67G U72C A135G	0.45
A62C A86G A98U	0.76
A67G U100C U103C	1.57
A64G A116U U130C	0.07
A68C A89G U103C A110C	0.74
A63G A86G U87C A117G U130C	0.59
A68G A78U A114U U124G	0.01
A67G G83A A117G U120G	2.42
A67G A82U U132C	0.27
G65A A68G U72C U122G U127C	0.1
A67G A68G U72C	0.16
A63G U72A A96G	0.2
A63G A78G A95G A116G	0.14
A63G A67U A90G	0.89
A64G A82G A94G A110G	0.04
A66U G73A U132C	0.18
A68G U72C A129G	0.08
A67U G73A U122C	0.05
A67G A91G U120C	0.48
A63G A92G A117G	1.23

Variant	self-cleavage
A68G A94G U108C	0.01
A63G U70C C77A A78G A91G U131C	0.3
A68G A91G A135G	1.24
A63G A82G U103A	0.45
A68G A78G A117G	0.37
A68G A86G A129C A134G	0.98
A67G A90G U102C A110G	0.06
G65U C101A A114G	0
A66G U120A C128A	1.29
A66G U87A A89G A91G	0.44
A66G U70C U97C A110G U132C	0.23
A68G A78U A92G U122G	0.83
A64G G104A A111G A126G	0
A66G A89U U100C	2.17
A63G A86U A110G A126G	0.11
A66U A91G A116G	0.12
A67G U87C A90G	0.32
A63U U102C A116U	1.28
A62U A69G U70A	1.38
A64G A90G A114U A116G	0.01
A64G U122C A135G	2.16
A67G A94G A118G U122C	0.71
A63G A78G A94G	0.16
A63G U70C A91G	0.64

Variant	self-cleavage
A62U A110C A118G	0.2
A63U A66G U131C	1.98
A62G A82U A94G	0.15
A66G A69G A110G	0.2
A66G A94G U102C	1.8
A62U A68G A89C	0.88
A66U A91G A140G	0.84
A62G U108A A114U	0.01
A68G A114U G138A	0.08
A62G U103C U108A	0.01
A63G A68G A78U U139C	0.4
A63G A86G A94U A111G	0.03
A67G U87A A90G	0.56
A64G A96G A111U U131C	0.05
A63C U70A A78U C105U U108C	0
A68G A118G U132C	0.47
A67G G79A A114G U130C	0.04
A67G A110G A116G	0.04
A68G A91U A96G U100C	2.74
A67G A96G U122C	1.17
A64G A69G U103C A114G	0.16
A64G A95G U139G A140U	2.76
A66G U131C U139C A140G	2.37

Reference: the RNAGym collection of RNA variant scans (doi:10.7554/elife.90254)
